The structures appear in SMILES notation. Screen size: about 310,000 compounds; about 2,200 (0.71%) showed an effect of 50% or more. Effects have a minus sign here. The list shows a part of the results.

In this test the target is human ether-à-go-go-related gene (hERG) potassium channel (human, UniProt Q12809). Kind of test: primary screen, population patch clamp on CHO cells stably expressing hERG.
Chain of human ether-à-go-go-related gene (hERG) potassium channel (Q12809 whole entry, looked up): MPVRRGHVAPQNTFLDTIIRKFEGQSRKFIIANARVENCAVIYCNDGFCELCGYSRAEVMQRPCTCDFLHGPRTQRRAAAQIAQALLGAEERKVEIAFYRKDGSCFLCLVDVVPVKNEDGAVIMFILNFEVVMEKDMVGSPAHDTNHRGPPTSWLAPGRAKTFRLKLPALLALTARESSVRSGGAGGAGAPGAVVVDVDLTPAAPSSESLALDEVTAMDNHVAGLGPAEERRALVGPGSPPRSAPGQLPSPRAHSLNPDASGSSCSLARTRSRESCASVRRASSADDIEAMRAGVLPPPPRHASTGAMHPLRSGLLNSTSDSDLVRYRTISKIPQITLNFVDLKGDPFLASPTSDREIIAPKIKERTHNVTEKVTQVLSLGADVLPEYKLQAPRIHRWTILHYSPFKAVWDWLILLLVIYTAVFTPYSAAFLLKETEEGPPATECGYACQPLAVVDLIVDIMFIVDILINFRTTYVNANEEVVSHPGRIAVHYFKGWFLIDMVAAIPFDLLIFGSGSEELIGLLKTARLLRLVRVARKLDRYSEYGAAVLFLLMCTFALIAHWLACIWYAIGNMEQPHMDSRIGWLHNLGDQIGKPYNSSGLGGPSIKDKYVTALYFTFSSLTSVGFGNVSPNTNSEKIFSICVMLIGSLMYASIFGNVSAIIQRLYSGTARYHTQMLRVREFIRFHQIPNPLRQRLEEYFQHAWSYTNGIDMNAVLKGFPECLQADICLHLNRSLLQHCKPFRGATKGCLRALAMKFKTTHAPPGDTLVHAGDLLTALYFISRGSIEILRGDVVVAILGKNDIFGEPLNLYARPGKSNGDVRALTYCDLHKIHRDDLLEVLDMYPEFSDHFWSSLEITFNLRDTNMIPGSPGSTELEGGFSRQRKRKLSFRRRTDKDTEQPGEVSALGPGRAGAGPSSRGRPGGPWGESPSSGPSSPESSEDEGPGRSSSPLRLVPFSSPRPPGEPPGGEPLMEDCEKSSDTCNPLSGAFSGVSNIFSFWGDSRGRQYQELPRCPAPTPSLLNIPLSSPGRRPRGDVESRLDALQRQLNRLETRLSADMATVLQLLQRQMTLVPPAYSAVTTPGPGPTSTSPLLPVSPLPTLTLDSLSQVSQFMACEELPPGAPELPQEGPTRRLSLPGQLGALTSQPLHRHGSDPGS
With `O=C(c1cccs1)N1CCN=C1SCc1cccc(F)c1`, the “hERG current change (%, negative = inhibition) at 1uM” value amounted to 10.6%. Under `N#Cc1ccc(NC(=O)CN2C(=O)NC3(CCCCCCC3)C2=O)cc1Cl` stands 16.7%.

Consider `O=C(NCCN1CCN(c2ccccc2F)CC1)c1cccn2c(=O)c3ccccc3nc12`, for which the “hERG current change (%, negative = inhibition) at 1uM” value is reported as -31.8%. Consider `CC(O)CCC(=O)NNC(=S)Nc1ccccc1` (stereo not shown), for which the “hERG current change (%, negative = inhibition) at 1uM” value is reported as -1.37%. Consider `CCOc1ccc(OCC(=O)Nc2ccc(N3CCCCC3)cc2)cc1`, for which the “hERG current change (%, negative = inhibition) at 1uM” value is 12.3%. For the compound `Cc1ccc(C(=O)C(C)OC(=O)CCN=C2NS(=O)(=O)c3ccccc32)cc1` (stereo not shown), the “hERG current change (%, negative = inhibition) at 1uM” value was 11.4%. With `O=C(COc1ccc(Cl)cc1Cl)NCCCN1CCOCC1`, the “hERG current change (%, negative = inhibition) at 1uM” value was -2.5%. To `C#CCNC(=O)C1=C[C@@H](c2cn(C(C)=O)c3ccccc23)C[C@@H](OCc2ccc(CO)cc2)O1` belongs 4.99%.

On to `CS(=O)(=O)N1CCc2cc(-c3csc(NC(=O)Cc4cccs4)n3)ccc21`, for which the “hERG current change (%, negative = inhibition) at 1uM” value is listed as -5%. Under `C/C(Cl)=C\Cn1c(NCCc2ccccc2)nc2c1c(=O)n(C)c(=O)n2C` stands -5.76%. To `CCOc1c(C)cc2[nH]c(CCC(=O)O)nc2c1C.Cl` belongs 5.57%; to `C=CCn1c(CCNC(=O)c2ccccc2F)nnc1SCC(=O)Nc1ccc(OC)cc1`, 3.27%. Under `O=C(Cn1c(=O)[nH]c2ccccc2c1=O)N1CCN(Cc2ccc3c(c2)OCO3)CC1` stands 24.7%; under `O=C(CSc1ccc(C(F)(F)F)cc1[N+](=O)[O-])NCCOc1ccccc1`, 8.53%; under `O=C(CSc1nc2cc([N+](=O)[O-])ccc2n1-c1ccccc1)NCc1ccc2c(c1)OCO2`, 6.1%. With `CCc1ccc(NC(=O)[C@H](C)NC(=O)C2CCN(C(=O)[C@@H](N)C(C)C)CC2)cc1.Cl`, the “hERG current change (%, negative = inhibition) at 1uM” value was -0.189%. To `COc1ccc(N2CCN(C(=O)c3ccc(NC(=O)C4=CSCCO4)cc3)CC2)cc1` belongs -0.662%; to `CC(C)(C)c1ccc(C2CC2C(=O)N/N=C\c2ccc[nH]2)cc1` (stereo not shown), 11%.

`CC(C)CCNC(=O)Cn1c2c(c(-c3ccccc3Cl)cc1=O)CCC2`: the “hERG current change (%, negative = inhibition) at 1uM” value was 5.79%. With `COc1ccccc1N1C(=O)CC(Sc2nccc(C)n2)C1=O` (stereo not shown), the “hERG current change (%, negative = inhibition) at 1uM” value worked out at 11.1%.

In the case of `CCOc1ccc(C(=O)C(C)OC(=O)c2cnc(C)cn2)cc1` (stereo not shown), the “hERG current change (%, negative = inhibition) at 1uM” value is 3.56%. Under `COc1cc(C(=O)Nc2cc(C(F)(F)F)ccc2-n2cncn2)cc(OC)c1OC` stands 0.897%; under `Cc1ccc(C(=O)N/N=C\c2ccc[nH]2)cn1`, 19%. As for `O=C1C2(CCC13COC(c1ccc(O)cc1)OC3)COC(c1ccc(O)cc1)OC2` (stereo not shown), the “hERG current change (%, negative = inhibition) at 1uM” value worked out at 1.55%. As for `CN=C(Nc1ccc2c(c1)OCO2)SC1CC(=O)N(c2ccccc2)C1=O` (stereo not shown), the “hERG current change (%, negative = inhibition) at 1uM” value is -9.59%. Under `c1csc(CNc2ncnc3ccc(-c4ccc5c(c4)OCO5)cc23)c1` stands 17.4%. For `CC(C)c1ccc(C2/C(=C(/O)c3ccc(F)cc3)C(=O)C(=O)N2CCCN2CCOCC2)cc1` (stereo not shown), the “hERG current change (%, negative = inhibition) at 1uM” value is reported as 11.7%.

`COc1ccc2c(ccc[n+]2CC(=O)c2ccccc2)c1.[Br-]`: the “hERG current change (%, negative = inhibition) at 1uM” value was 11.3%.

As to `O=C1CC2(CCN(C(=O)c3cccc([N+](=O)[O-])c3)CC2)Oc2ccccc21`, the “hERG current change (%, negative = inhibition) at 1uM” value is on record as -66.7%. As for `COc1ccc(CCNC(=O)Cc2ccc3c(c2)OCO3)cc1OC`, the “hERG current change (%, negative = inhibition) at 1uM” value is recorded as 9.98%.

With `O=C(CSc1nnc(Nc2ccccc2)s1)Nc1ccc(S(=O)(=O)N2CCOCC2)cc1`, the “hERG current change (%, negative = inhibition) at 1uM” value is listed as 8.65%.

In the case of `O=C(NC1=NN(c2ccccc2)CC1)Nc1ccccc1F`, the “hERG current change (%, negative = inhibition) at 1uM” value came to 7.23%.

Turning to `Cc1ccsc1C(=O)N1CCCC(C(=O)c2cc(F)ccc2F)C1` (stereo not shown), the “hERG current change (%, negative = inhibition) at 1uM” value was determined as 9.07%. To `CCCC(=O)Nc1nnc(CCN2CCCCC2)s1` belongs -2.16%; to `O=C(O)CCC(=O)N1CCOc2ccc(Cl)cc21`, 7.02%. Consider `Cc1ccc(C)c(OC2=NS(=O)(=O)c3ccccc32)c1`, for which the “hERG current change (%, negative = inhibition) at 1uM” value is recorded as 16.1%.

On to `COc1ccc(NC(=O)C(=O)N/N=C(\C)CC(=O)Nc2cc(C)ccn2)c(OC)c1`, for which the “hERG current change (%, negative = inhibition) at 1uM” value came out at 10.7%. To `CCC(=O)Oc1ccc(C(=O)Nc2ccccc2C(=O)NCC(C)C)cc1` belongs 11%; to `CCc1nc(SCc2ccccn2)[nH]c(=O)c1C`, 9.33%; to `CCOCCc1nnc(NC(=O)CSc2ccccc2)s1`, -16.5%. Turning to `CCN(c1ccc(NC(=O)CSc2nnc3nc(C)cc(C)n23)cc1)C(C)C`, the “hERG current change (%, negative = inhibition) at 1uM” value stood at 17.9%. Under `Cc1cc2nnc(SCC(=O)OC(C)C)n2c2ccccc12` stands 4.81%. Turning to `COc1cccc(C(=O)NC2CCCC2)c1`, the “hERG current change (%, negative = inhibition) at 1uM” value is listed as 2.56%.
